Publication PMC6919601, “Identification of Plasmodium dipeptidyl aminopeptidase allosteric inhibitors by high throughput screening” (PLoS ONE, 2019)
In all, about 110,000 compounds went through this assay and about 230 (0.21%) showed an effect of 50% or more. This is one part of the list.

target: DPAP1 (Plasmodium falciparum, UniProt Q8IIJ9); experiment: primary screen, percent inhibition; read by cleavage of a fluorogenic dipeptide substrate; higher = more effect of the substance; set-up: species or system P. falciparum D10 trophozoite lysates; single well
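Note: 30 min substrate incubation versus DMSO and 10 µM JCP410 controls.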

Sequence of DPAP1 (Q8IIJ9 whole entry, looked up): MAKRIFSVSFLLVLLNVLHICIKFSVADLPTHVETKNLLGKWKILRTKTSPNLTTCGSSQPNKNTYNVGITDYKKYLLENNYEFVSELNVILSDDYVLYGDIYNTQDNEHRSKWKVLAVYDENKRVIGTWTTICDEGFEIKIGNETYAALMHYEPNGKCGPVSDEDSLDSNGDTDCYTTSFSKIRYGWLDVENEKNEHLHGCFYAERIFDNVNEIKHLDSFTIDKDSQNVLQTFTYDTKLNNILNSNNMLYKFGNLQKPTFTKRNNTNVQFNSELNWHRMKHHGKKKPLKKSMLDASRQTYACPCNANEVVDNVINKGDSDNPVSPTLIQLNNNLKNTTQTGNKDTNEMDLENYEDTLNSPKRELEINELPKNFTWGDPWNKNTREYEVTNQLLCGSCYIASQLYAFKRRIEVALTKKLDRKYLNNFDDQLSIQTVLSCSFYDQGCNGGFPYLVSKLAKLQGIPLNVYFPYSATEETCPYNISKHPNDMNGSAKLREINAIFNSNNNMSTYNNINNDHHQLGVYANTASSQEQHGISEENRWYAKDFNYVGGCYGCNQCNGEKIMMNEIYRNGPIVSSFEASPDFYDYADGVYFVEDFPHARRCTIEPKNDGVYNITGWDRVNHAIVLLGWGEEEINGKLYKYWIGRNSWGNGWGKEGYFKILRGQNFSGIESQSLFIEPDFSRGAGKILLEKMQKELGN

Structure (SMILES) | % Inhibition @ 10 uM [%]
Cc1nc2ccccc2n1S(=O)(=O)c1ccc2c(c1)C(=O)c1ccccc1C2=O | 4.55
COc1ccccc1NS(=O)(=O)c1ccc(NC(=O)C23CC4CC(CC(C4)C2)C3)cc1 | -4.69
CSc1nc2c(c(=O)n1C1CCCC1)C1(CCCCC1)Cc1ccccc1-2 | -2.21
O=C(CN(Cc1ccc(F)cc1)S(=O)(=O)c1ccccc1)NC1CCCCCC1 | -1.39
N#CC1=C(N)OC2=C(C(=O)CC(c3ccccc3)C2)C1c1cccs1 (centres unmarked) | -1.38
CCOC(=O)c1c(NC(=O)c2nc(SC)ncc2Cl)sc2c1CCCC2 | -2.85
CCC(=O)Nc1sc2c(c1C(N)=O)CCC(C)C2 (centres unmarked) | 22.7
COc1cc(-c2ncnn2-c2ccc(Cl)cc2)cc(OC)c1OC | 5.37
FC(F)(F)c1cccc(-c2nnc(-c3ccncc3)o2)c1 | -3.8
COc1cc(C2Nc3cccc4cccc(c34)N2)cc(Br)c1O | -0.641
O=C(O)CN1C(=O)C2C3CC(C2C1=O)C1C(c2cccnc2)c2sc(O)nc2SC31 (centres unmarked) | 6.31
Cc1cc(C)n(-c2nc3nonc3nc2Nc2cccc(C(F)(F)F)c2)n1 | 15.9
COc1ccc(NC(=O)CN(c2cc(Cl)ccc2OC)S(C)(=O)=O)cc1 | -3.04
Cc1ccccc1Cc1c(C)nc2c(C(=O)n3ccnc3)cnn2c1C | 8.9
COc1ccc(OC)c(C2CC(c3ccc(C)cc3)=NN2S(=O)(=O)c2ccccc2)c1 (centres unmarked) | 0.611
CC(Oc1ccccc1)C(=O)Nc1cccc2cccnc12 (centres unmarked) | 4.11
COc1ccc(/C=C/C(=O)NCCSc2c[nH]c3ccccc23)cc1OC | 3.25
CCOc1ccc(C2N(c3cc(C)on3)C(=O)C3CCCN32)cc1 (centres unmarked) | -0.499
Cc1ccc2ncnc(NCCC(=O)O)c2c1 | -0.142
C=CCn1c(NCCCOC)nc2c1c(=O)n(C)c(=O)n2C | 4.93
COc1ccc(NC(=O)c2nccnc2C(=O)O)cc1 | -4.01
CCCN1C(=O)c2[nH]nc(-c3cccc(OC)c3)c2C1c1ccc(O)c(OCC)c1 (centres unmarked) | -6.56

Structure (SMILES) | % Inhibition @ 10 uM [%]
O=C(Cc1ccc(Cl)cc1)Nc1ccncc1 | -2.74
CCn1cc(CCC(=O)NC(C)c2ccccc2)c2ccccc21 (centres unmarked) | -4.34
Nc1c(-c2nc(-c3ccccc3)no2)nnn1-c1cccc(F)c1 | -1.01
Cc1cccc(-c2nc3n(n2)C(c2ccccc2Cl)C2=C(O)CC(C)(C)CC2=N3)c1 (centres unmarked) | 0.275
COc1ccc(-c2noc(-c3nnn(-c4cccc(C)c4)c3N)n2)cc1 | 3.73
CC(C)C[C@H](NC(=O)c1cc(-c2ccncc2)cc(-c2ccncc2)c1)C(=O)NCC#N | -8.26
COc1ccc(S(=O)(=O)NC(CC(=O)O)C(C)C)cc1 (centres unmarked) | 1.21
Cc1c(C)c(C)c(C(=O)Nc2ccc(Cl)c(Cl)c2)c(C)c1C | -1.54
Cn1c2ccccc2c2[nH]c3ccccc3c21 | 4.42
Cc1cccc(C(=O)Nc2nccc(C)n2)c1 | 0.163
COc1ccc(Br)cc1CN1CCN(C)CC1 | -0.192
O=S(=O)(Cc1ccccc1)c1nc2ccccc2n1Cc1ccccn1 | 2.72
Cc1cc2ccccc2n1CCNC(=O)c1ccc(F)c(F)c1 | 1.39
CC(C)CC(C(=O)NCC#N)c1cccc(-c2ccc(S(=O)(=O)NCCO)cc2)c1 (centres unmarked) | -4.72
Cc1cc(C)c2c(CC(=O)Nc3ccccc3C)coc2c1 | -3.77
O=C(Nc1ccccn1)c1ccc(-c2ccc(Cl)cc2)o1 | 4.83
CC(CN1CCC(C(N)=O)CC1)c1ccccc1 (centres unmarked) | 1.62
Cc1ccc2c(CN(C)CCC#N)cc(=O)oc2c1 | -3.49
CCOc1ccc(CN2C(=O)CS/C2=N\N=C\c2ccc(OC)c(OC)c2)cc1 | 3.95
Cc1cc(NC(=O)CN(C)C2CCCCC2)nc2c1c(=O)oc1ccccc12 | -4.46
COCc1cc(C2SCC(=O)Nc3c2c(O)nn3C2CCCCCC2)ccc1OC (centres unmarked) | -4.26
CCC1(C)COC2(OC1)C(=O)N(CN1CCOCC1)c1ccccc12 (centres unmarked) | 3.7

Structure (SMILES) | % Inhibition @ 10 uM [%]
Cc1nc2nc(N)nc(OCc3ccccc3)c2nc1C | 0.709
CC(=O)N1C(=O)C2(C(C#N)=C(N)Oc3[nH]nc(-c4ccncc4)c32)c2ccccc21 (centres unmarked) | 3.92
O=C(NC12CC3CC(CC(C3)C1)C2)C1CC(=O)N(c2ccccc2)C1 (centres unmarked) | 7.05
COc1cc(C)c(S(=O)(=O)NCCc2c(C)[nH]c3c(C)cccc23)cc1C | -0.703
Cn1cnc2c(=O)oc3ccc(S(=O)(=O)N4CC5CC(C4)c4cccc(=O)n4C5)cc3c21 (centres unmarked) | -5.54
CCCCN(C)C(=O)/C(=C/c1cn(CC)c2ccccc12)NC(=O)c1ccccc1F | 1.64
Nc1c(-c2nc(-c3ccncc3)no2)nnn1-c1cccc(C(F)(F)F)c1 | 2.19
CC(=O)NC1=NC(=O)/C(=C/c2ccc(-c3ccc(C)c(Cl)c3)o2)S1 | 21.6
CCc1ccc(C(=O)N2CCC(c3nc(O)c4nnn(Cc5ccc(C)cc5)c4n3)CC2)cc1 | 0.401
COCCNC(=O)Cn1nc(Cc2ccncc2)c2ccccc2c1=O | -4.69
CCCC(=O)c1c(Nc2cccc3ccccc23)cc(C)oc1=O | 4.04
COc1cc(CN2CCCCCCC2)cc(OC)c1O | -0.197
Cc1cc(NC(=O)CCn2cccn2)c2ccccc2n1 | -3.41
CC(C)NC(=O)Nc1cn(C)c(=O)c2ccccc12 | 5.38
CCn1c(C)c(-c2ccccc2)c2cc([N+](=O)[O-])ccc21 | -0.294
Nc1n[nH]c(-c2ccncc2)n1 | 4.61
C=C1c2ccccc2NC(=O)N1c1cccc(Cl)c1 | -7.22
COc1ccccc1CNC(=O)c1cc(-c2cccs2)nc2ccccc12 | -5.57
CCc1cc2c(cc3c(O)nncn32)s1 | -5.38
Cc1ccc(OC(C)C(=O)Nc2cc(C)ccn2)cc1 (centres unmarked) | 2.03
COC(=O)c1ccc(-c2ccco2)n1CC(=O)N1CCCC1 | 1.22
